Reference: the supplement of paper PMC12217912
The other results are listed elsewhere or left out. The full chains were built here from the parent and the listed change. Inactive controls read about 0.05.

B1: TEV protease; numbered along this chain (parent)
chain: MGESLFKGPRDYNPISSSICHLTNESDGHTTSLYGIGFGPFIITNKHLFRRNNGTLVVQSLHGVFKVKDTTTLQQHLVDGRDMIIIRMPKDFPPFPQKLKFREPQREERICLVTTNFQTKSMSSMVSDTSCTFPSGDGIFWKHWIQTKDGQCGSPLVSTRDGFIVGIHSASNFTNTNNYFTSVPKNFMELLTNQEAQQWVSGWRLNADSVLWGGHKVFMVKPEEPFQPVKEATQL

Variants of: B1
Assay: raw area under fraction-flipped curve 0-4 h after induction (AUC4h, not background-subtracted), DNA-recorder readout of cleavage of the substrate (dimensionless); higher = more cleavage of the substrate by the protease variant
Settings: temperature: 34 °C; time window: 0-4 h after rhamnose induction
Method: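 In vivo DNA recorder in E. coli TOP10(DE3) ΔrhaA at 34 °C. Each TEVp single-site mutant (parent TEVp 0) is paired with a single-site variant of the 7-mer TEVs (canonical ENLYFQ|S). The substrate sits between flexible linkers in a Bxb1-sfGFP-TEVs-SsrA fusion, so cleavage stabilises Bxb1 and speeds flipping of a recombination array, read by NGS. The value is the raw area under the fraction-flipped curve over 0-4 h after rhamnose induction (AUC4h), with ≥20 reads per time point. It is not background-subtracted; inactive controls average about 0.047.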
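Also: Bxb1 expression induced with 0.2% (w/v) L-rhamnose at OD600 near 0.5, cultures sampled hourly, flipped fraction per protease–substrate barcode pair counted by paired-end Illumina sequencing.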

Variant	area with substrate ENLYAQS	area with substrate ENLYDQS	area with substrate ENLYEQS	area with substrate ENLYHQS	area with substrate ENLYIQS	area with substrate ENLYKQS	area with substrate ENLYMQS	area with substrate ENLYNQS	area with substrate ENLYPQS	area with substrate ENLYQQS	area with substrate ENLYRQS	area with substrate ENLYVQS	area with substrate ENLYYQS	area with substrate ENLYLQS	area with substrate ENLYSQS	area with substrate ENLYTQS	area with substrate ENLYWQS	area with substrate ENLYGQS	area with substrate ENLYCQS
MGESLFKGPRDYNPISSSICHLTNESDGHTTSLYGIGFGKFIITNKHLFRRNNGTLVVQSLHGVFKVKDTTTLQQHLVDGRDMIIIRMPKDFPPFPQKLKFREPQREERICLVTTNFQTKSMSSMVSDTSCTFPSGDGIFWKHWIQTKDGQCGSPLVSTRDGFIVGIHSASNFTNTNNYFTSVPKNFMELLTNQEAQQWVSGWRLNADSVLWGGHKVFMVKPEEPFQPVKEATQL [P40K]	0.0754	0.0472	0.063	0.0713	0.0626	0.063	0.0673	0.0807	0.085	0.0493	0.0453	0.106	0.0687	–	–	–	–	–	–
MGESLFKGPRDYNPISSSICHLTNESDGHTTSLYGIGFGPFIITNKHLFRRNNGTLVVQSLHGVFKVKDTTVLQQHLVDGRDMIIIRMPKDFPPFPQKLKFREPQREERICLVTTNFQTKSMSSMVSDTSCTFPSGDGIFWKHWIQTKDGQCGSPLVSTRDGFIVGIHSASNFTNTNNYFTSVPKNFMELLTNQEAQQWVSGWRLNADSVLWGGHKVFMVKPEEPFQPVKEATQL [T72V]	0.0677	0.0447	0.069	0.0677	–	0.0446	0.0735	0.0733	0.0809	0.0655	0.0407	0.128	–	0.109	0.0738	0.0689	0.105	–	–
MGESLFKGPRDYNPISSSICHLTNESDGHTTSLYGIGFGPFIITNKHLFRRNNGTLVVQSLHGVFKVKDTTTLQQHLVDGRDMIIIRMPKDFPPFFQKLKFREPQREERICLVTTNFQTKSMSSMVSDTSCTFPSGDGIFWKHWIQTKDGQCGSPLVSTRDGFIVGIHSASNFTNTNNYFTSVPKNFMELLTNQEAQQWVSGWRLNADSVLWGGHKVFMVKPEEPFQPVKEATQL [P96F]	0.0682	0.0584	0.0754	0.0717	–	–	0.0918	0.0881	0.0688	–	0.0675	0.119	–	–	0.0712	–	0.0761	0.0465	–
MGESLFKGPRDYNPISSSICHLTNESDGHTTSLYGIGFGPFIITNKHLFRRNNGTLVVQSLHGVFKVKDTTHLQQHLVDGRDMIIIRMPKDFPPFPQKLKFREPQREERICLVTTNFQTKSMSSMVSDTSCTFPSGDGIFWKHWIQTKDGQCGSPLVSTRDGFIVGIHSASNFTNTNNYFTSVPKNFMELLTNQEAQQWVSGWRLNADSVLWGGHKVFMVKPEEPFQPVKEATQL [T72H]	0.0666	0.0583	0.0589	0.0608	–	0.0471	0.0895	0.0656	0.0687	0.0791	0.0675	0.148	0.0455	–	0.0766	–	0.0816	0.0526	0.0884
MGESLFKGPRDYNPISSSICHLTNESDGHTTSLYGIGFGPFIITNKHLFRRNNGTLVVQSLHGVFKVKDTTTLQQHLVDGRDMIIIRMPKDFPPFPQKLKFREPQREERICLVTTNFQTKSMSSMVSDTSCTFPSGDGIFWKHWIQTKDGQCGSPLVSTRDGFIVGKHSASNFTNTNNYFTSVPKNFMELLTNQEAQQWVSGWRLNADSVLWGGHKVFMVKPEEPFQPVKEATQL [I167K]	0.0493	0.0501	0.0586	0.0589	0.0455	0.0249	0.0447	0.0551	0.0581	0.0577	0.0583	0.0604	0.0466	–	0.0648	0.0524	0.0646	0.0572	0.0606
